In patent US20190367516A1 (Bayer Pharma Aktiengesellschaft, priority 2015, published 2019):

Target: T1, human M2 receptor (Homo sapiens, UniProt P08172)
T1 sequence (P08172 1-466): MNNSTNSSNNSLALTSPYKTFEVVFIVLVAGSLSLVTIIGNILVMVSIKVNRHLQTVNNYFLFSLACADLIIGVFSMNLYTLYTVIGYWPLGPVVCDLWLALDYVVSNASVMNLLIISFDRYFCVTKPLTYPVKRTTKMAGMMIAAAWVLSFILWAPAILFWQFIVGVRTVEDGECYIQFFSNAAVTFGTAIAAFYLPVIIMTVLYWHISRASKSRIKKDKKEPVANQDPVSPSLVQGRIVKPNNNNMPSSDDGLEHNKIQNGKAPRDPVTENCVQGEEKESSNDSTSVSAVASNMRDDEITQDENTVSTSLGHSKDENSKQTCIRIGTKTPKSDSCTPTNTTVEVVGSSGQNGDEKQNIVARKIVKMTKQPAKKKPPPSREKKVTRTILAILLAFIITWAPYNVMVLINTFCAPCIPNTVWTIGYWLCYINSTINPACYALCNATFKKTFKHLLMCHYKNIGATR
Details: boosting of the acetylcholine effect at an EC20 acetylcholine concentration; for Emax: read-out: Efficiency, M2-GIRK1/4 activation test; for Efficiency: M2-GIRK1/4 activation test

Emax [%] | Efficiency [%] | Compound
95 | – | O=C(NC12CCC(F)(CC1)CC2)c1cn(-c2ccc(F)cc2F)c2nc(NCC(F)(F)F)ccc2c1=O [Example 97, 1-(2,4-Difluorophenyl)-N-(4-fluorobicyclo[2.2.2]oct-1-yl)-4-oxo-7-[(2,2,2-trifluoroethyl)amino]-1,4-dihydro-1,8-naphthyridine-3-carboxamide]
99.3 | – | C[C@@H]1C[C@H](F)CN1c1ccc2c(=O)c(C(=O)NC34CC5CC(CC(C5)C3)C4)cn(-c3ccc(F)cc3F)c2n1 [Example 11, 1-(2,4-Difluorophenyl)-7-[(2R,4S)-4-fluoro-2-methylpyrrolidin-1-yl]-4-oxo-N-(tricyclo[3.3.1.1^3,7]dec-1-yl)-1,4-dihydro-1,8-naphthyridine-3-carboxamide]
92.5 | – | CNc1ccc2c(=O)c(C(=O)NC34CC5CC(C3)CC(C(F)(F)F)(C5)C4)cn(-c3ccc(F)cc3F)c2n1 [Example 160, 1-(2,4-Difluorophenyl)-7-(methylamino)-4-oxo-N-[3-(trifluoromethyl)tricyclo[3.3.1.1^3,7]dec-1-yl]-1,4-dihydro-1,8-naphthyridine-3-carboxamide]
89.8 | – | O=C(NC12CC3CC(CC(C3)C1)C2)c1cn(-c2ccc(F)cc2F)c2nc(N3CC[S+]([O-])C3)ccc2c1=O (centres unmarked) [Example 131, 1-(2,4-Difluorophenyl)-7-(1-oxido-1,3-thiazolidin-3-yl)-4-oxo-N-(tricyclo[3.3.1.1^3,7]dec-1-yl)-1,4-dihydro-1,8-naphthyridine-3-carboxamide]
– | 100.0 | CC(COC(F)(F)F)NC(=O)c1cn(-c2ccc(F)cc2F)c2nc(N3CC[C@H](F)C3)ccc2c1=O (single isomer, unassigned) [Example 229]
95 | – | C[C@H](NC(=O)c1cn(-c2c(F)cccc2F)c2nc(N3CC4CC4(O)C3)ccc2c1=O)C(F)(F)F (mixture of isomers) [Example 311, 1-(2,6-Difluorophenyl)-7-[1-hydroxy-3-azabicyclo[3.1.0]hex-3-yl]-4-oxo-N-[(2S)-1,1,1-trifluoropropan-2-yl]-1,4-dihydro-1,8-naphthyridine-3-carboxamide]
98.5 | – | CC[C@@H](NC(=O)c1cn(-c2c(F)cccc2F)c2nc(N3CC4CC4(O)C3)ccc2c1=O)C(F)(F)F (single isomer, unassigned) [Example 305]
92 | – | CCCC(NC(=O)c1cn(-c2ccc(F)cc2F)c2nc(N3CC[C@H](F)C3)ccc2c1=O)C(F)(F)F (stereo partly drawn) [Example 66, 1-(2,4-Difluorophenyl)-7-[(3S)-3-fluoropyrrolidin-1-yl]-4-oxo-N-[1,1,1-trifluoropentan-2-yl]-1,4-dihydro-1,8-naphthyridine-3-carboxamide]
93.7 | – | CC[C@@H](NC(=O)c1cn(-c2ccc(F)cc2F)c2nc(N3C[C@@H]4C(COC)[C@@H]4C3)ccc2c1=O)C(F)(F)F (stereo partly drawn) [Example 190, 1-(2,4-Difluorophenyl)-7-[(1R,5S)-6-(methoxymethyl)-3-azabicyclo[3.1.0]hex-3-yl]-4-oxo-N-[(2R)-1,1,1-trifluorobutan-2-yl]-1,4-dihydro-1,8-naphthyridine-3-carboxamide]
99.3 | – | CCC(NC(=O)c1cn(-c2ccc(F)cc2F)c2nc(N3CCN(C(=O)OC)CC3)ccc2c1=O)C(F)(F)F (racemic) [Example 23, rac-Methyl 4-{8-(2,4-difluorophenyl)-5-oxo-6-[(1,1,1-trifluorobutan-2-yl)carbamoyl]-5,8-dihydro-1,8-naphthyridin-2-yl}piperazine-1-carboxylate]
99.3 | – | CC[C@H](NC(=O)c1cn(-c2ccc(F)cc2F)c2nc(N3C[C@@H](C(=O)OC)OC3=O)ccc2c1=O)C(F)(F)F [Example 258, Methyl (5S)-3-[8-(2,4-difluorophenyl)-5-oxo-6-{[(2S)-1,1,1-trifluorobutan-2-yl]carbamoyl}-5,8-dihydro-1,8-naphthyridin-2-yl]-2-oxo-1,3-oxazolidine-5-carboxylate]
– | 100.0 | CC(C)(CC(F)(F)F)NC(=O)c1cn(-c2c(F)cc(F)cc2Cl)c2nc(N3C[C@@H](O)[C@H](O)C3)ccc2c1=O (single isomer, unassigned) [Example 393]
96.7 | – | CC[C@@H](NC(=O)c1cn(-c2ccc(F)cc2F)c2nc(N3CC[C@@H](F)[C@H](O)C3)ccc2c1=O)C(F)(F)F [Example 33, 1-(2,4-Difluorophenyl)-7-[(3R,4R)-4-fluoro-3-hydroxypiperidin-1-yl]-4-oxo-N-[(2R)-1,1,1-trifluorobutan-2-yl]-1,4-dihydro-1,8-naphthyridine-3-carboxamide]
87.7 | – | CCC(NC(=O)c1cn(-c2ccc(F)cc2F)c2nc(NCC(F)F)ccc2c1=O)C(F)(F)F (racemic) [Example 122, rac-7-[(2,2-Difluoroethyl)amino]-1-(2,4-difluorophenyl)-4-oxo-N-[1,1,1-trifluorobutan-2-yl]-1,4-dihydro-1,8-naphthyridine-3-carboxamide]
96.7 | – | O=C(NC(c1c(F)cccc1F)C(F)(F)F)c1cn(-c2ccc(F)cc2F)c2nc(N3CC[C@H](F)C3)ccc2c1=O (single isomer, unassigned) [Example 242]
– | 97.5 | O=C(N[C@H](c1ccccc1Cl)C(F)(F)F)c1cn(-c2ccc(F)cc2F)c2nc(N3CCCC(O)C3=O)ccc2c1=O (single isomer, unassigned) [Example 208]
98.5 | – | CN(C)c1ccc2c(=O)c(C(=O)Nc3c(F)cccc3F)cn(-c3ccc(F)cc3F)c2n1 [Example 52, 1-(2,4-Difluorophenyl)-N-(2,6-difluorophenyl)-7-(dimethylamino)-4-oxo-1,4-dihydro-1,8-naphthyridine-3-carboxamide]
92.3 | – | O=C(NC1(C(F)(F)F)CCCC1)c1cn(-c2ccc(F)cc2F)c2nc(NCC(F)(F)F)ccc2c1=O [Example 96, 1-(2,4-Difluorophenyl)-4-oxo-7-[(2,2,2-trifluoroethyl)amino]-N-[1-(trifluoromethyl)cyclopentyl]-1,4-dihydro-1,8-naphthyridine-3-carboxamide]
97.5 | – | CC[C@@H](NC(=O)c1cn(-c2ccc(F)cc2F)c2nc(N3CC4CNC(=O)C4C3)ccc2c1=O)C(F)(F)F (mixture of isomers) [Example 221, 1-(2,4-Difluorophenyl)-4-oxo-7-[4-oxohexahydrpyrrolo[3,4-c]pyrrol-2(1H)-yl]-N-[(2R)-1,1,1-trifluorobutan-2-yl]-1,4-dihydro-1,8-naphthyridine-3-carboxamide]
97 | – | CC(C)C[C@H](NC(=O)c1cn(-c2ccc(F)cc2F)c2nc(N(C)C)ccc2c1=O)C(F)(F)F [Example 137, 1-(2,4-Difluorophenyl)-7-(dimethylamino)-4-oxo-N-[(2S)-1,1,1-trifluoro-4-methylpentan-2-yl]-1,4-dihydro-1,8-naphthyridine-3-carboxamide]
– | 93.5 | O=C(N[C@H](c1ccccc1Cl)C(F)(F)F)c1cn(-c2ccc(F)cc2F)c2nc(N3CCCC(O)C3=O)ccc2c1=O (single isomer, unassigned) [Example 210]
100 | – | Cc1ccccc1C(NC(=O)c1cn(-c2ccc(F)cc2F)c2nc(N(C)C)ccc2c1=O)C(F)(F)F (racemic) [Example 142, rac-1-(2,4-Difluorophenyl)-7-(dimethylamino)-4-oxo-N-[2,2,2-trifluoro-1-(2-methylphenyl)ethyl]-1,4-dihydro-1,8-naphthyridine-3-carboxamide]
97 | – | CN(C)c1ccc2c(=O)c(C(=O)NCc3ccccc3C(F)(F)F)cn(-c3ccc(F)cc3F)c2n1 [Example 59, 1-(2,4-Difluorophenyl)-7-(dimethylamino)-4-oxo-N-[2-(trifluoromethyl)benzyl]-1,4-dihydro-1,8-naphthyridine-3-carboxamide]
94.3 | – | CC1(O)CCCN(c2ccc3c(=O)c(C(=O)NC45CC6CC(CC(C6)C4)C5)cn(-c4ccc(F)cc4F)c3n2)C1 (racemic) [Example 119, rac-1-(2,4-Difluorophenyl)-7-(3-hydroxy-3-methylpiperidin-1-yl)-4-oxo-N-(tricyclo[3.3.1.1^3,7]dec-1-yl)-1,4-dihydro-1,8-naphthyridine-3-carboxamide]
97.4 | – | CC12CCC(NC(=O)c3cn(-c4ccc(F)cc4F)c4nc(NCC(F)(F)F)ccc4c3=O)(CC1)CC2 [Example 98, 1-(2,4-Difluorophenyl)-N-(4-methylbicyclo[2.2.2]oct-1-yl)-4-oxo-7-[(2,2,2-trifluoroethyl)amino]-1,4-dihydro-1,8-naphthyridine-3-carboxamide]
99.5 | – | CC[C@@H](NC(=O)c1cn(-c2ccc(F)cc2F)c2nc(N3CC(O)C4(CC4)C3)ccc2c1=O)C(F)(F)F (stereo partly drawn) [Example 355, 1-(2,4-Difluorophenyl)-7-[7-hydroxy-5-azaspiro[2.4]hept-5-yl]-4-oxo-N-[(2R)-1,1,1-trifluorobutan-2-yl]-1,4-dihydro-1,8-naphthyridine-3-carboxamide]

Compound | Emax [%] | Efficiency [%]
O=C(NC12CC3CC(CC(C3)C1)C2)c1cn(-c2ccc(F)cc2F)c2nc(N3CCC3=O)ccc2c1=O [Example 168] | 95 | –
O=C(NC12CC3CC(CC(C3)C1)C2)c1cn(-c2ccc(F)cc2F)c2nc(NCCF)ccc2c1=O [Example 83, 1-(2,4-Difluorophenyl)-7-[(2-fluoroethyl)amino]-4-oxo-N-(tricyclo[3.3.1.1^3,7]dec-1-yl)-1,4-dihydro-1,8-naphthyridine-3-carboxamide] | 88.9 | –
O=C(NC12CC3CC(CC(C3)C1)C2)c1cn(-c2ccc(F)cc2F)c2nc(N3CCCS3(=O)=O)ccc2c1=O [Example 167] | 95 | –
